Measured values from PMC4336329 (PLoS ONE, 2015).
In all, about 310,000 compounds went through this assay and about 2,200 (0.71%) showed an effect of 50% or more. Effects have a minus sign here. The list shows a part of the results.

Target: human ether-à-go-go-related gene (hERG) potassium channel (human, UniProt Q12809)
Assay: primary screen, population patch clamp on CHO cells stably expressing hERG

Sequence of human ether-à-go-go-related gene (hERG) potassium channel (Q12809 whole entry, looked up): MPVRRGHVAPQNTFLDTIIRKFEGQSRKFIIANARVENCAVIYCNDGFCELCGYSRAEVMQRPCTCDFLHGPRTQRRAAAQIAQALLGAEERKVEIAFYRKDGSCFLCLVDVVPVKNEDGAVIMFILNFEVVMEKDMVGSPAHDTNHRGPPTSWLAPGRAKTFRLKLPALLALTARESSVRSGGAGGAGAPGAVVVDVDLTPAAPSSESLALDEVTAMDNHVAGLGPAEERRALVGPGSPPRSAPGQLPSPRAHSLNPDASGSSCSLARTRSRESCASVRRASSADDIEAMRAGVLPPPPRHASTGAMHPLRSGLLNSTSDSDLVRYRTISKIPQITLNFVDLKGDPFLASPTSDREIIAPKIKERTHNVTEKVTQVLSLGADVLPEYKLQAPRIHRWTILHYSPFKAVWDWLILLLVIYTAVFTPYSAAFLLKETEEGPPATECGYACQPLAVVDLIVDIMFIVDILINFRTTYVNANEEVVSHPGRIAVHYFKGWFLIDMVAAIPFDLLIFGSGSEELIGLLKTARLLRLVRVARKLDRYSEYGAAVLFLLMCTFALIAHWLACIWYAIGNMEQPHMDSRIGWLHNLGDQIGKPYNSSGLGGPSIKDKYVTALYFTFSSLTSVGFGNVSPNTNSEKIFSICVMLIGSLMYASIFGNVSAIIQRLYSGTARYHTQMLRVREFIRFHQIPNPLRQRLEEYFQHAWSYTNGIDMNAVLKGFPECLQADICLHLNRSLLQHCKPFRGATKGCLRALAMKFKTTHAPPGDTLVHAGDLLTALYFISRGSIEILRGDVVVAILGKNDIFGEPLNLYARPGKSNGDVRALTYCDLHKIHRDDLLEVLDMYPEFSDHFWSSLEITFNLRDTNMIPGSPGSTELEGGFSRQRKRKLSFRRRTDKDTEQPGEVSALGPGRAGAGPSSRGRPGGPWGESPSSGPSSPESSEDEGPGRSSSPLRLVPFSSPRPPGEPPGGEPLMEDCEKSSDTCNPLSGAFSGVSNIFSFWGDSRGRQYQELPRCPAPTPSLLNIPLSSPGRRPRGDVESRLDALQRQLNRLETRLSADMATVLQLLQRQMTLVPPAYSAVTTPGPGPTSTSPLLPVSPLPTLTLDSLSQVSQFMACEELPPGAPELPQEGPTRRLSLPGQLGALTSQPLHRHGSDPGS

| SMILES | hERG current change (%, negative = inhibition) at 1uM [%] |
| --- | --- |
| CC(=O)Nc1ccc(S(=O)(=O)Nc2ccc(S(=O)(=O)N3CCCC3)cc2)cc1 | 4.58 |
| CC(=O)Nc1ccc(SCC(=O)N(CCC#N)c2cc(C)cc(C)c2)cc1 | 4.06 |
| Cc1ccc(OCC(=O)Oc2c(C)cccc2C)cc1C | 17 |
| CC(C)(C)C(=O)NC1CC2CCCC(C1)N2C(=O)Nc1ccccc1F (stereo not shown) | 17.7 |
| CCOC(=O)c1c(C)c(C(=O)NCc2ccccc2OC)c(C)n1C | -4.27 |
| CC(C)(C)c1cc(CN(CCO)CCO)c(O)c(C(C)(C)C)c1 | -12.7 |
| CC(=O)Nc1ccc(-c2csc(NCCc3ccccc3)n2)cc1 | 18.4 |
| CCCCn1nc(C(=O)O)ccc1=O | 18.9 |
| Cc1ccc(C(=O)OCC(=O)NCC(F)(F)F)cc1C | 10.1 |
| Cl.O=C(NC1CCN(Cc2ccccc2)CC1)c1cccc(OC(F)F)c1 | -45.2 |
| Cc1nn(-c2ccccc2)c(Cl)c1C(=O)N(C)c1nc(-c2ccc(F)cc2)cs1 | 15 |
| O=C(NC(=S)NCCCN1CCOCC1)c1ccc(Br)cc1 | 0.801 |
| O=C(Nc1ccc2oc(=O)ccc2c1)c1ccc(-c2ccc(Cl)cc2)o1 | 4.96 |
| COc1ccc(S(=O)(=O)N(CC(=O)Nc2cc(C)on2)Cc2ccccc2)cc1 | 15.2 |
| Cc1cc(NC(=O)C(C)C)ncc1NC(=O)CCc1ccccc1 | 8.95 |
| CC[C@@]12C(=O)N(c3cccc(Cl)c3)C(=O)N1[C@H](c1ccc(Br)cc1)[C@@H]1C(=O)N(C(C)(C)C)C(=O)[C@@H]12 | 8.52 |
| CCOc1ccccc1N1CCN(C(=O)NC(C)c2ccc(F)c(F)c2)CC1 (stereo not shown) | 18.9 |
| CCOC(=O)NN1C(=O)c2ccccc2NC1c1ccc(OC)cc1 (stereo not shown) | 13.8 |
| COc1ccccc1CNC(=O)C(C)n1cccc1C(=O)c1ccccc1 (stereo not shown) | 5.6 |
| COc1ccc(-n2c(C)cc(C)c(C(C)=O)c2=S)cc1 | 6.35 |
| COc1ccc2[nH]cc(/C=C/c3cc[n+](C)cc3)c2c1.[I-] | 9.56 |
| CCC(=O)Nc1ccc(S(=O)(=O)Nc2c(NC)c3ccccc3oc2=O)cc1 | 15.1 |

| SMILES | hERG current change (%, negative = inhibition) at 1uM [%] |
| --- | --- |
| CN1C(=O)N(C)C(=O)C2(Cc3c(nc4ccccn4c3=O)N3CCc4ccccc4C32)C1=O (stereo not shown) | 1.97 |
| Cn1c(C(=O)N2CCCc3ccccc32)cc2sccc21 | 4.99 |
| COc1ccc(C[C@@H]2CN3C(=NC[C@@H]3C)N2C[C@H](C)NC(=O)CCC2CCCCC2)cc1 | -20.8 |
| O=c1cc(-c2ccc(Cl)cc2)[nH][nH]1 | 2.37 |
| COc1ccc(OCCOC(=O)c2[nH]c(C)c(C(C)=O)c2C)cc1 | 8.51 |
| CC(NC(=O)COC(=O)/C=C/c1cccc(C(F)(F)F)c1)c1ccccc1 (stereo not shown) | 9.27 |
| O=C(Nc1sc2c(c1C(=O)O)CCCC2)c1cccc(Cl)c1 | 21.5 |
| COc1ccc(C(=O)Nc2nc(C)c(C(C)=O)s2)cc1S(=O)(=O)N1CCOCC1 | 2.17 |
| C(=N\n1cnnc1)/C1CCCCC1 | 10.9 |
| Cc1cc([N+](=O)[O-])nn1CC(=O)NC1CCCCC1 | 13.5 |
| CC1CCCCN1CCCNC(=O)c1nn(C)c2c1CS(=O)(=O)c1ccccc1-2 (stereo not shown) | 13.4 |
| CCCCNC(=O)CC1N=C2c3ccccc3N=C(SCC(=O)Nc3ccccc3OC)N2C1=O (stereo not shown) | 5.85 |
| O=C(CSc1nc2ccccc2n1CCc1ccccc1)N1CCOCC1 | 8.22 |
| COc1ccc(-c2cc3c(=O)n(CC(=O)NCCCN4CCC(Cc5ccccc5)CC4)ncn3n2)cc1 | -6.98 |
| Cc1ccc(C(=O)CC(=O)COc2ccc(Cl)cc2C)cc1 | -3 |
| CC(=O)N1CCOc2ccc(S(=O)(=O)NCC3CCC(C(=O)NCCC(C)C)CC3)cc21 (stereo not shown) | 12.4 |
| O=Cc1sc(Nc2ccccc2)nc1Cl | -0.131 |
| O=C(CCn1c(=O)[nH]c2ccsc2c1=O)Nc1ccc(F)c(F)c1 | 17.4 |
| Cc1ccccc1NC(=O)C1CCCN(S(=O)(=O)c2c(C)noc2C)C1 (stereo not shown) | 10.1 |
| COC(=O)C1CCN(C(=O)C2CCCCC2)CC1 | 4.7 |
| Cc1ccc(C(=O)NCCc2nnc3ccc(NCc4ccc5c(c4)OCO5)nn23)cc1 | 5.72 |
| O=C(Cn1c(=O)oc2cc(S(=O)(=O)N3CCCCCC3)ccc21)NC1CCCCC1 | 12.6 |

| SMILES | hERG current change (%, negative = inhibition) at 1uM [%] |
| --- | --- |
| COP1(=O)C[C@@H](O)[C@@H](O)[C@@H](COCc2ccccc2)O1 (stereo partly shown) | 8.53 |
| O=C(CSCc1ccccc1)N1CCN(c2ccccc2)CC1 | -7.13 |
| O=C(OCCOCCN=C1NS(=O)(=O)c2ccccc21)C1CC(=O)N(c2ccccc2)C1 (stereo not shown) | 18 |
| CCOC(=O)C1CCN(C(=O)c2ccc(Cl)c(Cl)c2)CC1 | -8.87 |
| COC(=O)c1ccc(CSc2cc(C)c3cc(C)cc(C)c3n2)o1 | 9.76 |
| Cc1cc(C)c2c(=O)[nH]c(SCC(=O)NCCc3ccccc3)nc2n1 | 8.09 |
| COc1ccc(OC)c(NC(=O)COC(=O)c2c(C)noc2C)c1 | 13.3 |
| COc1ccc(C(=O)N/N=C(\C)c2ccc3c(c2)C2C=CCC2C(c2ccccc2)N3)cc1 (stereo not shown) | 7.57 |
| COc1ccc(Cl)cc1-n1c(=S)sc2c(=O)[nH]c(SCC(=O)NCC3CCCO3)nc21 (stereo not shown) | 16.2 |
| CC(C)[C@@H](NC(=O)C1CCC(CNC(=O)[C@H](Cc2ccccc2)NC(=O)OC(C)(C)C)CC1)C(=O)O (stereo partly shown) | 7.42 |
| Cc1cccc(CSCCNC(=O)c2ccc(N(C)S(=O)(=O)c3ccccc3)cc2)c1 | 5.86 |
| Cc1c(NS(=O)(=O)c2ccc(N3CCN(C)CC3)c([N+](=O)[O-])c2)c(=O)n(-c2ccccc2)n1C | 13.6 |
| Cc1csc(CN(C)C(=O)C2CCC(=O)N(CCN(C)C)C2)n1 (stereo not shown) | 11.4 |
| CN(N)c1nc(-c2ccccc2)cc(-c2ccccc2)n1 | 22.8 |
| Cc1ccsc1/C=N/NC(=O)Cc1cc(=O)[nH][nH]1 | 9.54 |
| CCn1c(C)nnc1SCC(=O)NC1CCCC1 | 6.88 |
| COC(=O)C(O)(c1ccc(N(C)C(=O)OC(C)C)cc1)C(F)(F)F (stereo not shown) | 15.7 |
| COc1ccc2nc(/N=C/c3c(C)[nH]n(-c4ccc(C)cc4)c3=O)sc2c1 | -31.5 |
| Cc1ccc(C)c(-c2csc(Nc3ncccn3)n2)c1 | 23.4 |
| CCOC(=O)c1c(NC(=O)c2cc(-c3ccc(Cl)s3)nc3ccccc23)sc(C(N)=O)c1C | 14.6 |
| Cc1csc2ncc(C(=O)Nc3ccc(C(F)(F)F)cc3)c(=O)n12 | 16.5 |
| CN(C)c1nc(-c2ccccc2)ns1 | 17.1 |

| SMILES | hERG current change (%, negative = inhibition) at 1uM [%] |
| --- | --- |
| O=C(CSc1cccc2cccnc12)N1CCCC1 | 10.2 |
| COC(=O)c1sccc1NC(=O)CSc1ccccc1NS(=O)(=O)c1ccc(Br)cc1 | 16.9 |
| COC(=O)c1ccc(Oc2c(C)oc3c(CN4CCN(C)CC4)c(O)ccc3c2=O)cc1 | 16.7 |
| O=C(CSc1nnc(-c2ccccc2F)n1C1CC1)Nc1cccnc1Cl | 12.3 |
| CCOC(=O)c1cccc(NC(=O)C2CCCN2S(=O)(=O)c2cccc3cccnc23)c1 (stereo not shown) | -2.22 |
| Cc1ccccc1NS(=O)(=O)c1ccc(OCC(=O)N2CCN(C)CC2)cc1 | 12.7 |
| NC(=O)c1ccc(Oc2ccc3c(c2)CCC3)c([N+](=O)[O-])c1 | 10.3 |
| NNC(=O)CN1C(CN2CCOCC2)=Nc2ccc(Br)cc2C1c1ccccc1 (stereo not shown) | -26.7 |
| CCc1nnc(SCC(=O)N2CCCC(N3CCN(c4ccccc4C)CC3)C2)o1 (stereo not shown) | -2.3 |
| O=C(N/N=C\c1ccoc1)c1ccco1 | 13.4 |
| Cc1cc(C(=O)Nc2c(F)cc(F)cc2Br)c(C)o1 | -7.8 |
| O=C(N/N=C/c1cn(Cc2ccccc2)c2ccccc12)c1cc(O)cc(O)c1 | 14 |
| CC(C)N1CCc2c(sc(NC(=O)c3nc4ccccc4s3)c2C(N)=O)C1.Cl | -1.83 |
| O=C(NCc1ccccc1Cl)c1cnc2ccccc2n1 | 15.3 |
| COc1ccc(-n2nc3c(c2NC(=O)CBr)CSC3)cc1 | 7.72 |
| O=C(CCc1c[nH]c2ccccc12)N1CCCCCCC1 | 7.52 |
| CCOC(=O)c1cnn(-c2ccc(C)cc2)c1N | 7.77 |
| CCN(CC)S(=O)(=O)c1ccc(C)c(NC(=O)CNc2cccc(S(=O)(=O)N3CCCC3)c2)c1 | 16.4 |
| CCS(=O)(=O)c1nc(S(=O)(=O)c2ccc(Cl)cc2)c(N2CCC3(CC2)OCCO3)s1 | 4.56 |
| Cc1cc(C)n2[nH]c(=O)c(N=Nc3ccc(S(N)(=O)=O)cc3)c2n1 | 19.8 |
| COc1ccc(OC)c(C2C(C#N)=C(N)N(N(C)C)C3=C2C(=O)CCC3)c1 (stereo not shown) | 9.8 |
| O=C(OCn1nnc2ccccc2c1=O)C1COc2ccccc2O1 (stereo not shown) | 14.3 |
